Laboratory results taken from the supplement of paper PMC9174493.
Some of the results follow. Single values of this set are uncertain. Values with irradiation are relative to irradiated vehicle.

Columns and labels:
A549-Dual [1] = assay: NF-kB reporter (SEAP) activity, viability-corrected, relative to vehicle (fold change vs vehicle); higher = more activation of STING-IRF / NF-kB immune response reporter; settings: 10 µM
A549-Dual [2] = assay: ISRE reporter (Lucia luciferase) activity, viability-corrected, relative to vehicle (fold change vs vehicle); higher = more activation of STING-IRF / NF-kB immune response reporter; settings: 10 µM
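Wherever NF-kB reporter (SEAP) activity, viability-corrected, relative to vehicle is given: viability correction based on the alamar blue assay, with concentrations leaving 10% survival or less dropped.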

SMILES | NF-kB reporter (A549-Dual [1]; irradiation: 8 Gy/4 fr) | NF-kB reporter (A549-Dual [1]; irradiation: none) | ISRE reporter (A549-Dual [2]; irradiation: 8 Gy/4 fr) | ISRE reporter (A549-Dual [2]; irradiation: none)
CNC(CC(C)C)C(=O)NC1C(=O)NC(CC(N)=O)C(=O)NC2C(=O)NC3C(=O)NC(C(=O)NC(C(=O)O)c4cc(O)cc(O)c4-c4cc3ccc4O)C(O)c3ccc(c(Cl)c3)Oc3cc2cc(c3OC2OC(CO)C(O)C(O)C2OC2CC(C)(N)C(O)C(C)O2)Oc2ccc(cc2Cl)C1O.Cl (centres undefined) [Vancomycin HCl] | 0.887 | 0.968 | 0.859 | 1.06
CC1CCc2cc(F)cc3c(=O)c(C(=O)O)cn1c23 (centres undefined) [Flumequine] | 1.06 | 1.09 | 1.02 | 0.873
COCC(=O)Nc1c(I)c(C(=O)NCC(O)CO)c(I)c(C(=O)N(C)CC(O)CO)c1I (centres undefined) [Iopromide] | 0.963 | 0.777 | 0.817 | 0.631
[Cl][Cs] [Cesium chloride] | 0.749 | 1.16 | 0.685 | 0.949
CCOC(=O)CCC(=O)OC1C(OC2C(C)C(OC3CC(C)(OC)C(O)C(C)O3)C(C)C(=O)OC(CC)C(C)(O)C(O)C(C)C(=O)C(C)CC2(C)O)OC(C)CC1N(C)C (centres undefined) [Erythromycin Ethylsuccinate] | 0.97 | 1.12 | 0.858 | 0.869
COc1cc2c(cc1OC)-c1cc3ccc(OC)c(OC)c3c[n+]1CC2.[Cl-] [Palmatine chloride] | 0.848 | 0.749 | 0.968 | 1.4
CCOC(=O)C(CCc1ccccc1)NC(C)C(=O)N1C(C(=O)O)CC2CCCC21 (centres undefined) [Ramipril] | 0.884 | 1.06 | 0.972 | 1.04
CC1CCC2C(C)C(O)OC3OC4(C)CCC1C32OO4 (centres undefined) [Dihydroartemisinin (DHA)] | 0.93 | 1.48 | 0.645 | 2.87
C=CC(C)(O)CCC=C(C)C (centres undefined) [Linalool] | 0.899 | 1.03 | 0.804 | 0.761
CO/N=C(\C(=O)NC1C(=O)N2C(C(=O)O)=C(CSC(=O)c3ccco3)CSC12)c1csc(N)n1 (centres undefined) [Ceftiofur] | 0.736 | 0.889 | 0.675 | 0.643
O=C(/C=C/c1ccc(O)c(O)c1)OC1CC(O)(C(=O)O)CC(O)C1O (centres undefined) [Chlorogenic Acid] | 0.925 | 0.769 | 1.04 | 0.941
Cc1cn(C2C=CC(CO)O2)c(=O)[nH]c1=O (centres undefined) [Stavudine (d4T)] | 0.706 | 0.9 | 0.707 | 0.685
C#CC1(O)CCC2C3CCC4=CC(=O)CCC4C3C(=C)CC21CC (centres undefined) [Etonogestrel] | 0.427 | 0.909 | 0.211 | 0.4
CNCCc1ccccn1 [Betahistine] | 0.595 | 0.916 | 0.696 | 0.912
COc1cc2nc(N3CCN(C(=O)C4COc5ccccc5O4)CC3)nc(N)c2cc1OC.CS(=O)(=O)O (centres undefined) [Doxazosin Mesylate] | 0.683 | 0.998 | 1 | 1.42
CC(=O)OC1CC2(C)C(CC(O)C3C4(C)CCC(O)C(C)C4CCC32C)/C1=C(\CCC=C(C)C)C(=O)O (centres undefined) [Fusidine] | 0.696 | 0.781 | 0.854 | 0.877
CC12C=CC(=O)C=C1CCC1C2C(O)CC2(C)C1CCC2(O)C(=O)CO (centres undefined) [Prednisolone] | 1.11 | 0.73 | 0.105 | 0.149
CNCCCC1c2ccccc2C=Cc2ccccc21.Cl [Protriptyline hydrochloride] | 0.583 | 0.892 | 0.648 | 0.873
Cl.Nc1ccc(N=Nc2ccccc2)c(N)n1 [Phenazopyridine HCl] | 0.84 | 0.958 | 0.319 | 0.482

SMILES | NF-kB reporter (A549-Dual [1]; irradiation: 8 Gy/4 fr) | NF-kB reporter (A549-Dual [1]; irradiation: none) | ISRE reporter (A549-Dual [2]; irradiation: 8 Gy/4 fr) | ISRE reporter (A549-Dual [2]; irradiation: none)
NC(C=O)C(O)C(O)C(O)CO.O=S(=O)(O)O (centres undefined) [Glucosamine sulfate] | 1.07 | 0.997 | 0.912 | 0.788
CC(=O)OCC(=O)C12OC(C)(C)OC1CC1C3CC(F)C4=CC(=O)C=CC4(C)C3(F)C(O)CC12C (centres undefined) [Fluocinonide] | 0.314 | 0.926 | 0.0495 | 0.3
O=C(O)CC(O)C(=O)O (centres undefined) [Malic acid] | 0.772 | 1.45 | 0.0857 | 0.286
CCCCCCCCCCCCOS(=O)(=O)[O-].[Na+] [Sodium lauryl sulfate] | 0.855 | 0.833 | 0.722 | 0.619
OC1COC2C(O)COC12 (centres undefined) [Isosorbide] | 0.844 | 0.99 | 0.812 | 0.749
CC1OC(OC2C(O)CC(OC3C(O)CC(OC4CCC5(C)C(CCC6C5CC(O)C5(C)C(C7=CC(=O)OC7)CCC65O)C4)OC3C)OC2C)CC(O)C1O (centres undefined) [Digoxin] | 1.04 | 1.81 | 0.0989 | 0.188
CCn1cc(C(=O)O)c(=O)c2cc(F)c(N3CCNCC3)nc21 [Enoxacin] | 0.673 | 0.861 | 0.632 | 0.68
CNC1CCc2[nH]c3ccc(C(N)=O)cc3c2C1.O=C(O)CCC(=O)O (centres undefined) [Frovatriptan Succinate] | 0.839 | 1.41 | 0.671 | 0.735
CC(=O)OC/C=C(/C)CCC=C(C)C [Neryl acetate] | 0.699 | 0.823 | 0.704 | 0.634
CCCc1nc2c(C)cc(-c3nc4ccccc4n3C)cc2n1Cc1ccc(-c2ccccc2C(=O)O)cc1 [Telmisartan] | 1.36 | 1.11 | 1.98 | 1.75
COc1cc2nc(N3CCN(C(=O)C4COc5ccccc5O4)CC3)nc(N)c2cc1OC (centres undefined) [Doxazosin] | 0.717 | 0.665 | 0.834 | 0.848
O=c1ncnc2[nH][nH]cc1-2 [Allopurinol] | 0.859 | 0.668 | 0.766 | 0.694
COC(=O)NC(C(=O)N1CCCC1c1ncc(-c2ccc3c(c2)OC(c2ccccc2)n2c-3cc3cc(-c4cnc(C5CCCN5C(=O)C(NC(=O)OC)C(C)C)[nH]4)ccc32)[nH]1)C(C)C (centres undefined) [Elbasvir] | 0.94 | 0.995 | 1.26 | 2.25
Nc1nc([O-])c2ncn(COC(CO)CO)c2n1.[Na+] [Ganciclovir sodium] | 1.12 | 1.2 | 1.07 | 1.02
OCC1OC(O)C(O)C(O)C1O [D-Galactose] | 0.807 | 1.02 | 0.915 | 0.823
COC(=O)C1=C(C)NC(C)=C(C(=O)OC2CCCN(Cc3ccccc3)C2)C1c1cccc([N+](=O)[O-])c1.Cl (centres undefined) [Benidipine HCl] | 0.648 | 0.776 | 0.714 | 0.882
CC(=O)OC1C[C@H](C)CCC1C(C)C (stereo partly drawn) [(1R)-(-)-Menthyl acetate] | 0.852 | 0.793 | 0.713 | 0.591
CCOC(=O)C(N)Cc1ccc(-c2cc(OC(c3ccc(Cl)cc3-n3ccc(C)n3)C(F)(F)F)nc(N)n2)cc1.O=C(O)CNC(=O)c1ccccc1 (centres undefined) [Telotristat Etiprate (LX 1606 Hippurate)] | 0.732 | 1.24 | 0.683 | 0.877
CC(=O)OC/C=C(\C)CCC=C(C)C [Geranyl acetate] | 1.11 | 0.943 | 1.14 | 0.697

SMILES | NF-kB reporter (A549-Dual [1]; irradiation: 8 Gy/4 fr) | NF-kB reporter (A549-Dual [1]; irradiation: none) | ISRE reporter (A549-Dual [2]; irradiation: 8 Gy/4 fr) | ISRE reporter (A549-Dual [2]; irradiation: none)
O=CC(O)C(O)C(O)C(O)CO (centres undefined) [Dextrose] | 1.16 | 0.595 | 0.952 | 0.563
O=C(O)[C@H](O)c1ccccc1 [(R)-(-)-Mandelic acid] | 1.11 | 1.16 | 1.09 | 1.3
Cc1ccsc1/C=C/C1=NCCCN1C.O=C(O)C(O)C(O)C(=O)O [Morantel tartrate] | 0.708 | 0.782 | 0.64 | 0.617
CO/N=C(\C(=O)NC1C(=O)N2C(C(=O)[O-])=C(C[n+]3ccn4ncccc43)CSC12)c1nsc(N)n1.Cl (centres undefined) [Cefozopran hydrochloride] | 0.871 | 0.677 | 0.817 | 0.504
CN(C)CC/C=C1/c2ccccc2Sc2ccc(Cl)cc21 [Chlorprothixene] | 1.01 | 1.02 | 1.14 | 1.41
CCN1CC(C)n2c(c(O)c3c(=O)n(Cc4ccc(F)c(Cl)c4)nc(C(=O)NC)c32)C1=O (centres undefined) | 0.827 | 1.32 | 0.856 | 2.62
C#CCNC1CCc2ccccc21 (centres undefined) [Rasagiline] | 0.903 | 1.13 | 0.698 | 0.661
N=C(N)NCCCCC1NC(=O)CCSSCC(C(N)=O)NC(=O)C2CCCN2C(=O)C(Cc2c[nH]c3ccccc23)NC(=O)C(CC(=O)O)NC(=O)CNC1=O (centres undefined) [Eptifibatide Acetate] | 1.04 | 1.85 | 0.805 | 1.23
CC1(C)SC2C(NC(=O)C(NC(=O)N3CCNC3=O)c3ccccc3)C(=O)N2C1C(=O)O.[NaH] (centres undefined) [Azlocillin sodium salt] | 0.848 | 1.24 | 0.765 | 0.743
Cl.N/N=c1\[nH]ncc2ccccc12 [Hydralazine HCl] | 1.17 | 1.63 | 0.752 | 1.29
CCN(CCCc1ccccc1)CCCc1ccccc1.O=C(O)CC(O)(CC(=O)O)C(=O)O [Alverine Citrate] | 0.82 | 0.927 | 0.895 | 0.888
O=C1c2cccc(O)c2C(=O)c2c(O)cccc21 [Danthron] | 0.772 | 0.988 | 0.978 | 1.56
COc1cc(C)c(/C=C/C(C)=C/C=C/C(C)=C/C(=O)O)c(C)c1C [Acitretin] | 0.725 | 0.746 | 0.696 | 0.724
CCCCOC(=O)c1ccc(O)cc1 [Butylparaben] | 0.793 | 1.04 | 0.643 | 0.745
CC(C)NCC(O)COc1cccc2[nH]ccc12 (centres undefined) [Pindolol] | 0.71 | 0.742 | 0.609 | 0.8
CN(CCOc1ccc(CC2SC(=O)NC2=O)cc1)c1ccccn1.O=C(O)/C=C\C(=O)O (centres undefined) [Rosiglitazone maleate] | 0.754 | 0.943 | 0.621 | 0.87
COc1nccnc1NS(=O)(=O)c1ccc(N)cc1 [Sulfalene(SMPZ)] | 1.39 | 1.55 | 1.5 | 1.03
COC(=O)C1=C(C)NC(C)=C(C(=O)OC(C)(C)CN(C)CCC(c2ccccc2)c2ccccc2)C1c1cccc([N+](=O)[O-])c1 (centres undefined) [Lercanidipine] | 0.512 | 0.605 | 0.547 | 1.45
